Assay results taken from PubChem BioAssay AID1159614 (National Center for Advancing Translational Sciences (NCATS), 2016).
In all, about 45,000 compounds went through this assay and about 65 (0.1%) were called active. Calls follow the shape of the dose curve; as a rule, active = well fitted activation curve with a large enough effect; inconclusive = small, poorly fitted or top-dose-only effect; inactive = no such curve, though single readings can be large or run the other way. Some of the results follow.

molecular target: Galactocerebrosidase (Homo sapiens) (UniProt P54803); assay: A Novel Cell-Based Assay to Identify Small Molecules for B -Galactocerebrosidase; settings: 145M-Twi-hGALC-G270D cells (Twitcher mouse brain line with human GALC G270D), HMU-beta-Gal fluorescence, 48 h; series mostly up to 57.5 µM; activation: at the top concentration; also: 0% is about no effect; nearly all actives have a fitted effect of over 65% in size
Chain of UniProt P54803 (P54803 whole entry, looked up): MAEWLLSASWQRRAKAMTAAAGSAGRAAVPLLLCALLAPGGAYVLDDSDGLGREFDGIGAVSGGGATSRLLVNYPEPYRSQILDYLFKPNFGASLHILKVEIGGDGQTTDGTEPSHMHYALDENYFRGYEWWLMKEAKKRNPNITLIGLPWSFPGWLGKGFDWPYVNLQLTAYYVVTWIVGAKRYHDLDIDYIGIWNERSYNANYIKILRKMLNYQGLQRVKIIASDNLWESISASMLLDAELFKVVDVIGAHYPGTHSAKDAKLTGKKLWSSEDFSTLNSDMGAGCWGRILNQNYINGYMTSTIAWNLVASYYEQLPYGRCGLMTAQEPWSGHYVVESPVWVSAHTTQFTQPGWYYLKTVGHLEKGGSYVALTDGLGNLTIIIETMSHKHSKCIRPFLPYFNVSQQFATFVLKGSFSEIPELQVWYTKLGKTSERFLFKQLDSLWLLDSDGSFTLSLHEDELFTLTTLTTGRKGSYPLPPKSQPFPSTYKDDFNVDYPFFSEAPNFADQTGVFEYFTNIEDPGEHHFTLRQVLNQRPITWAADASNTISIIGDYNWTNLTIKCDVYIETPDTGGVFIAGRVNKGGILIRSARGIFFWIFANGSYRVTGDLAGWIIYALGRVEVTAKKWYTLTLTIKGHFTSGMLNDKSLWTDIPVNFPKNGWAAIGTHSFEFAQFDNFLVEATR
Outline: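 Fluorescence readout: HMU-β-gal cleavage by mutant GALC (0.1 mM final, citrate/phosphate pH 5.2 with 1 mg/mL taurocholate), stopped with carbonate/bicarbonate plus Triton X-100. Cells: murine Twitcher 145M-Twi expressing human G270D GALC; qHTS for activators.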

activation, inactive:
CCc1ccccc1NC(=O)CSc1nnc(CC)c(CC)n1 -12.9%, Cc1ccc2nc(NC(=O)c3cc(=O)c4cc(Cl)ccc4o3)sc2c1 -8.77%, Cn1c(Oc2ccc(F)cc2)nc2c1c(=O)n(Cc1ccccc1Cl)c(=O)n2C -11.9%, CC(=O)N1CCc2c(sc3c2c(=O)n(-c2ccc(C)cc2)c(=O)n3CC(=O)Nc2ccccc2)C1 -1.66%, O=C(NCCc1ccc(Cl)cc1)c1ccc(CS(=O)(=O)Cc2ccccc2F)o1 -6.45%, CCOc1ccc(-c2c(C)nn3c(C)c(C(=O)NCc4ccc(C)o4)cnc23)cc1OCC -20.5%, Cc1cc(N2CCC(C)CC2)nc2ccc(NC(=O)/C=C/c3cccc(Cl)c3)cc12 -9.45%, COC(=O)Nc1nc2ccc(C(=O)c3cccs3)cc2[nH]1 -16.9%, CC(C)c1ccc(Nc2c(-c3ccccc3O)nc3cnccn23)cc1 -9.94%, COc1ccc(Cn2ccc3nc(C)c(C(=O)Nc4ccc(C)c(F)c4)cc3c2=O)cc1 -11.9%, Cc1ccc(-c2cc(C(=O)NCc3ccccc3)c3c(-c4ccc(C)cc4)[nH]nc3n2)cc1 -6.66%, COC(=O)c1c(NC(=O)c2ccccc2C(=O)O)sc2c1CCCC2 -16.4%, COc1ccccc1NC(=O)c1c(NC(=O)c2ccccc2F)sc2c1CCC2 10.4%, CCSc1nc2c(c(=O)[nH]c(=O)n2C)n1CC(O)COc1ccc(Cl)cc1 (stereo unspecified) -10.6%, COc1ccc(N2CCN(C(=O)c3ccc4c(c3)CCN4S(C)(=O)=O)CC2)cc1 -1.21%, Cc1nc(SCC(=O)Nc2ccc(Br)cc2)[nH]c(=O)c1Cc1ccccc1 -37.6%, Cc1c(Cl)cccc1NC(=O)Cn1nc(C)c2sc3ccccc3c2c1=O -26.1%, Cc1ccc(C)c(S(=O)(=O)c2nnn3c2nc(Nc2ccc(F)c(Cl)c2)c2sccc23)c1 -14.5%, CCc1ccc(OCC(=O)NCc2nc(-c3cccc(C)c3)no2)c(Br)c1 -25.7%, Cc1ccc2c(c1)N(C(=O)N1CCC(C(=O)NCc3ccco3)CC1)CC(C)O2 (stereo unspecified) -11.1%, Cc1ccc(S(=O)(=O)CCC(=O)N2CCN(c3nc4c(C)c(Cl)ccc4s3)CC2)cc1 -42.5%, CCCCOC(=O)c1ccc(NC(=O)Cc2coc3ccc(C(C)C)cc23)cc1 -10.9%, CC(=O)N1CCC2(CC1)OC(=O)C(C)=C2C(=O)Nc1ccccc1C(F)(F)F 3.69%, CCOC(=O)C1CCN(C(=O)Cn2ncc3c([nH]c4ccc(C)cc43)c2=O)CC1 4.13%, Cc1cccc(N(CC(=O)NCCSc2ccc(Cl)cc2)S(=O)(=O)c2ccccc2)c1C -14.5%, COc1cc(C(=O)N2CCc3c([nH]c4ccccc34)C2c2ccccc2)cc(OC)c1OC (stereo unspecified) -27.8%, Cc1cccc(C(=O)Nc2nc(-c3ccc(Br)cc3)ns2)c1 -8.22%, COc1ccccc1CCNC(=O)Cn1ccc2cc(S(=O)(=O)N3CCCCCC3)ccc21 -19.2%, CCc1nnc(SCc2nc(-c3ccc(OC)cc3)oc2C)c2cc3sccc3n12 -6.17%, COc1cccc(-c2nn(C)c3sc(C(=O)N4CCN(c5cccc(C)c5)C(C)C4)cc23)c1 (stereo unspecified) -11.7%, Cc1ccc(C)c(N2CCN(C(=O)c3cc(S(=O)(=O)N4CCCC4)cn3C)CC2)c1 -15.2%, CCOC(=O)C1CCC(CN(Cc2c(Cl)cccc2Cl)S(=O)(=O)c2ccc(F)cc2)CC1 (stereo unspecified) -17.8%, CN(C)CCN1C(=O)c2ccccc2N(C)c2ccccc21 -8.41%, CCCC(=O)OC[C@@H](OC(=O)CCC)[C@@H](OC(=O)CCC)[C@H](Cn1c2nc(=O)[nH]c(=O)c-2nc2cc(C)c(C)cc21)OC(=O)CCC -4.91%, CSc1ncc(C(=O)N2CCN(c3ccc(F)cc3)CC2)c(C)n1 -9.97%, CC(S)C(=O)NCC(=O)O (stereo unspecified) -6.99%, CCCC(=O)O[C@]1(C(=O)COC(=O)CC)CC[C@H]2[C@@H]3CCC4=CC(=O)CC[C@]4(C)[C@H]3[C@@H](O)C[C@@]21C -16% [at 23.8 µM], COc1ccc(NC(=O)Cn2cnc3sc(C)c(S(=O)(=O)N4CCN(C)CC4)c3c2=O)cc1OC -1.34%, CCOc1ccc(CNC(=O)c2cc3oc4ccccc4c3n2C)cc1 -15.5%, Cc1ccc(C)c(NC(=O)Cn2cc(C(=O)c3ccncc3)c(=O)c3cc(F)ccc32)c1 -14.8%, O=C(CSc1nc2c(c(=O)[nH]1)CCC2)Nc1ccccc1F -12.2%, CN(C)c1ccc(CNc2nc(-c3ccco3)nn2S(=O)(=O)c2ccc3ccccc3c2)cc1 -7.7%, Cc1cc(C)c2c(CC(=O)N(Cc3ccc(N(C)C)cc3)Cc3ccco3)coc2c1 -18.7%, Cc1ccc(CCNC(=O)CN(c2ccc(C)cc2)S(=O)(=O)c2c(C)noc2C)cc1 5.26%, Cc1c(Cl)ccc2sc(N3CCN(C(=O)c4ccco4)CC3)nc12 -18.1%, COc1ccccc1CNc1ccc(-c2nc(C(C)C)no2)cc1[N+](=O)[O-] -38.5%, CN(C(=O)C(Cl)Cl)c1ccc(OC(=O)c2ccco2)cc1 -12.7%, O=C(Nc1ccc(F)cc1)[C@H](Cc1ccccc1)N1Cc2ccccc2C1=O 4.24%, Cn1nnnc1SCCCNCc1cccc(OCc2ccc(Cl)cc2)c1 -12.8%, CC(C)CCOc1ccc(C(=O)Nc2sc3c(c2C#N)CCCCC3)cc1 -7.84%, Cc1ccccc1OCc1ccc(-c2nc(C#N)c(NCCCN(C)C)o2)o1 -27.3%, Cc1ccc(C(=O)Nc2ccc(Cl)c(-c3nc4ncccc4o3)c2)c(C)c1 -13.9%, Cc1ccccc1-c1nc(CNC(=O)Nc2ccccc2)c(C)o1 -11.5%, COc1cccc(-c2nc(-c3ccc(-c4ccccc4)nc3OC)no2)c1 -14.7%, CCOC(=O)C1CCN(C(c2ccccc2OC)c2c(O)cc(C)n(CCOC)c2=O)CC1 (stereo unspecified) -5.27%, COC(=O)c1ccc(Nc2ncnc3c2nc2n3CCCC2)cc1 -35.3%, CCOc1ccc(C(=O)NCCn2cc(SCC(=O)NCCc3ccc(OC)c(OC)c3)c3ccccc32)cc1 -7.73%, CCOc1ccccc1NC(=O)C1CCN(S(=O)(=O)c2c(C)noc2/C=C/c2ccc(C)cc2)CC1 -8.87%, O=C(Nc1ccccc1)c1cccc2c(=O)c3c([nH]c12)CCCC3 -11.8%, CCOC(=O)N1CCN(C(=O)CN(c2cccc(Cl)c2C)S(=O)(=O)c2ccc(C)cc2)CC1 -27.5%, Cc1cccc(-n2c(SCC(N)=O)nc3c(oc4ccccc43)c2=O)c1 -7.55%, COc1ccccc1-c1nc(-c2ccc(Br)o2)no1 -35.9%, O=C(c1cc2c(=O)oc3ccccc3c2s1)N1CCN(c2cccc(Cl)c2)CC1 0.983%, COc1ccc(Cl)cc1NC(=O)Cn1ccn(Cc2ccc(C)cc2)c(=O)c1=O 9.18%, COc1ccccc1OCCn1cc(C(=O)c2cccs2)c2ccccc21 -34.2%, COc1cc(/C=C/C(N)=O)cc(OC)c1OC -12.1%, Cc1ccc(-n2nc3c(N4CCC(C(=O)NC(C)C)CC4)nnc(C)c3c2C)cc1 -3.89%, Nc1ccn([C@H]2CC[C@@H](CO)O2)c(=O)n1 -10.7%, Cc1cc(C)cc(NC(=O)c2cc(S(=O)(=O)N3CCCCCC3)cn2C)c1 -10.5%, COCCn1c(SCC(=O)c2cc(C)ccc2C)nc2cc(C(=O)NC3CCCC3)ccc2c1=O -3.06%, CCN(CC)CCN(C(=O)c1ccco1)c1nc2ccc(Cl)cc2s1 -19.8%, Cc1nn(CC(=O)NC2CC2)c(=O)c2cc3ccccc3n12 -8.13%, Cn1c(SCc2ccc(F)cc2)nc2ccc(C(=O)NCc3ccc(F)cc3)cc21 -10.9%, CCC1CN(C(=O)N2CCC(C(=O)NCc3ccc(OC)cc3OC)CC2)c2cc(C)ccc2O1 (stereo unspecified) -18.4%, Cc1ccc(NC(=O)Cn2c(-c3ccc4c(c3)OCO4)cn(-c3ccccc3)c2=O)cc1C -14.7%, CCc1ccc(NC(=O)c2ccc3c(c2)nnn3CC)cc1 -3.31%, COc1ccc(-c2nn(C)c3sc(C(=O)Nc4cccc(F)c4)cc23)cc1OC -4.8%, Cc1c(Cl)cccc1-n1ncc(C(=O)Nc2ccc3c(c2)OCCO3)c1C1CCN(C(=O)OC(C)(C)C)CC1 3.63%, CCOc1ccc(-c2nc(SC(C(C)=O)C(=O)N(C)C)c3c(=O)n(C)c(=O)n(C)c3n2)cc1 (stereo unspecified) -8.12%, CCN(CC)S(=O)(=O)c1ccc2c(c1)N(CC(=O)N1CCN(c3cccc(C(F)(F)F)c3)CC1)C(=O)CO2 -11.8%, Cc1ccccc1OCC(=O)OCc1cc(=O)n2ccsc2n1 -6.89%, Cc1ccc2cc3cc(C(=O)Nc4ccc(F)cc4Cl)oc3nc2c1 3.34%, Cc1ccccc1CNC(=O)C1CCN(c2nnc(C)c3c(C)n(-c4ccccc4)nc23)CC1 -13.7%, CCc1ccc(-c2nc3ccc(Br)cc3c(C(=O)O)c2C)s1 -10.4%, O=C(Cn1c(=O)n(Cc2ccc3c(c2)OCO3)c(=O)c2oc3ccccc3c21)Nc1ccccc1 -2.5%, CSc1ccc(CCNC(=O)C2CCN(c3nc4ccccc4nc3C(F)(F)F)CC2)cc1 -5.87%, COc1cc(-c2noc(-c3cc4cc(F)ccc4oc3=O)n2)cc(OC)c1OC -6.87%, CCc1nnc(NC(=O)c2cc(=O)c3cc(C)c(C)cc3o2)s1 -30.3%, CN1C(=O)C2(c3ccccc31)N(c1ccccc1)C(=O)CS2(=O)=O (stereo unspecified) -23.5%, CCn1c(C(=O)NCc2cccc(Br)c2)cc2oc3ccccc3c21 -7.57%, COC(=O)c1ccc(NC(=O)c2c(NCc3ccc(C)o3)sc3c2CCCC3)cc1 -15%, C[C@@H]1CCN(C(=O)[C@H](CCCN=C(N)N)NS(=O)(=O)c2cccc3c2NC[C@H](C)C3)[C@@H](C(=O)O)C1 -14.8%, Cc1cc(C)c2oc(C(=O)Nc3sc4c(c3C(=O)NCc3ccco3)CCC4)cc(=O)c2c1 -13.2%, CN1CCN(C(=O)C(=O)Nc2c3c(nn2-c2ccc(F)cc2)CSC3)CC1 -8.18%, Cc1ccc(C)c(CN2C(=O)c3ccccc3S(=O)(=O)c3ccc(C(=O)Nc4ccccc4C(F)(F)F)cc32)c1 -9.42%, Cc1ccc(NC(=O)/C=C/c2ccccc2)c(Br)c1 -4.92%
